Laboratory results as given in PMC520748.
No constants are given. Whether binding was seen depends on the method and setting. For some of these results: In cells and extracts the contact can be indirect. Some binding calls cover weakened binding; strength is not graded here. For some of these results: Sequences can lack the tags named with a protein.

Tests used:
[1] = biological target: FKBP12 fused in frame to the DBD of LexA (pBTM-FKBP12) (UniProt P62942); assay: two-hybrid; yeast L40 cotransformed with pGAD-C1q-Cw/oS and LexA-DBD fusions of immunophilins; histidine prototrophy and β-gal activity
[2] = biological target: T1, FKBP13 without signal peptide fused to the LexA-DBD (pBTM-FKBP13w/oS) (UniProt P26885); assay: as above
T1 sequence: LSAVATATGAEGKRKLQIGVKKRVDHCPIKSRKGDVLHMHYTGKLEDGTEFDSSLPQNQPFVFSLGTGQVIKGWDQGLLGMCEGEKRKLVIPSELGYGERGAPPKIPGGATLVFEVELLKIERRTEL

[3] = biological target: T2, FKBP25 fused in frame to the DBD of LexA (pBTM-FKBP25) (UniProt Q00688); assay: as above
T2 sequence: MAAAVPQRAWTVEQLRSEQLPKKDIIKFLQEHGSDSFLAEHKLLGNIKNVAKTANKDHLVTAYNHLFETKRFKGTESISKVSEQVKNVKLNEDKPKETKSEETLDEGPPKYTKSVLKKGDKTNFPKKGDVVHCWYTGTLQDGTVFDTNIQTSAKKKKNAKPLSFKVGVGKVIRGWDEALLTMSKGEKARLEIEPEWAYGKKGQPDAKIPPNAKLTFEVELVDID

[4] = biological target: T3, FKBP52 fused in frame to the DBD of LexA (pBTM-FKBP52) (UniProt Q02790); assay: as above
T3 sequence: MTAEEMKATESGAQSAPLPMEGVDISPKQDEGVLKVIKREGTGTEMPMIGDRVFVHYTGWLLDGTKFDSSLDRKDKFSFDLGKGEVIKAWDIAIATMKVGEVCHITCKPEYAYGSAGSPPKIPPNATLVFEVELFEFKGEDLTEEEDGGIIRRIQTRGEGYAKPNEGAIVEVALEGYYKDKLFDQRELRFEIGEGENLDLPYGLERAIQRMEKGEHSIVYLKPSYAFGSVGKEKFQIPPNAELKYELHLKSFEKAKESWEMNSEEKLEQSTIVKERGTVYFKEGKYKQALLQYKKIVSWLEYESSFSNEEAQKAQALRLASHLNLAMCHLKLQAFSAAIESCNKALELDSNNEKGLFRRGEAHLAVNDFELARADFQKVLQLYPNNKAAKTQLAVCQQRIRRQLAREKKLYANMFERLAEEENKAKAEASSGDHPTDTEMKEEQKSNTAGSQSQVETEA

[5] = biological target: T1, FKBP13 without signal peptide fused to the LexA-DBD (pBTM-FKBP13w/oS); assay: two-hybrid; yeast L40 cotransformed with pGAD-C1q-Cw/oS and pBTM-FKBP13w/oS, incubated in the presence of FK506 (up to 100 μM); β-gal activity
[6] = biological target: T1, FKBP13 without signal peptide fused to the LexA-DBD (pBTM-FKBP13w/oS); assay: two-hybrid; screen in yeast L40: LexA-DBD-FKBP13w/oS as bait, human fetal liver cDNA library in pACT2 as prey; selection for histidine prototrophy, β-gal activity, retransformation with the bait; 30°C
[7] = biological target: T4, FKBP13w/oS fused in frame via a 15 amino acid peptide linker to aa 198 to 287 of β-lactamase (pCDNA-FKBP13linkBla[2]) (UniProt P26885); assay: split reporter; β-lactamase protein complementation assay: INS-1 cells cotransfected, lysed after two days, hydrolysis of nitrocefin measured in the supernatant
T4 sequence: T1 sequence

Q: How did the binding [1] turn out when “full length C1q-C-Gal4AD hybrid protein lacking a 26 amino acids signal peptide (pGAD-C1q-Cw/oS) (from UniProt P02747 27-245)” was run?
A: The binding was “no binding”.

Q: What about the binding [2] of the same substance?
A: Its binding is “binds”.

Q: And the binding [3]?
A: Its binding is “no binding”.

Q: What about the binding [4] of the same substance?
A: The binding was “no binding”.

Q: And the binding [5]?
A: The binding was “binds”.

Q: With “clone A3: cDNA of the C-chain of complement C1 corresponding to amino acids 122 to 217 (library clone in pACT2) (from UniProt P02747 150-245) (domain or fragment)” as the substance, how does the binding [6] read?
A: Its binding is “binds”.

Q: “β-lactamase aa 21 to 196 fused in frame via a 15 amino acid peptide linker to C1q-Cw/oS (pCMVSPORT-Bla[1]M182TlinkC1q-Cw/oS) (from UniProt P02747 27-245)” was tested. Which binding [7] did it give?
A: The binding was “binds”.
